Sequences with one replicate were seen in a single cluster, so their values are uncertain.
test system: ATP; experiment: switch fluorescence ratio, 500 uM ATP over buffer (Cy3 cluster intensity, sum of 5 cycles each) (fold (ratio)); higher = stronger signal-on switching upon ATP binding; sequences stand for … in TCGTCGGCAGCGTCAGATGTGTATAAGAGACAGTTTTTTTTTTTTTTTTTTTTTTTTT…TC; conditions: aptamer strand: ATP DNA aptamer (quencher-CACCTGGGGGAGTATTGCGGAGGAAGG + anchor), 100 nM annealed; ATP concentration: 500 uM; one replicate
Summary of the method: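 Cy3-labelled switching-strand clusters on a modified Illumina MiSeq flow-cell were annealed to 100 nM quencher-labelled ATP aptamer and imaged first in selection buffer, then after 15 min with 500 uM ATP at 22 °C. NaOH stripping and re-annealing separated each of five buffer/ATP cycles, and clusters outside 100-1000 RFU were excluded. The fluorescence ratio sums target-cycle Cy3 intensity over buffer-cycle Cy3 intensity per cluster and averages it per switch-domain sequence.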
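Further: ATP exposure 15 min at 22 °C before imaging.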

Sequence	switch fluorescence ratio
CGTAGCGCCT	1.03
CGTAGCGCG	0.984
CGTAGCGGAT	1.23
CGTAGGGTAG	0.961
CGTAGGTATA	1
CGTAGGTATT	0.99
CGTAGGTTTC	1.02
CGTATACCCC	1.25
CGTATACTGG	1.05
CGTATATTT	1.02
CGTATCTTTC	1.03
CGTATGGCGG	1.01
CGTATTACGA	1
CGTATTATCG	0.903
CGTATTCCAG	0.991
CGTCAAATCA	1.03
CGTCCTTAAC	1.17
CGTCGCTATA	1.65
CGTCGGACGG	1.02
CGTCGTCCCG	1.02
CGTCGTGGAA	0.954
CGTCGTTGGG	1.1
CGTCTCTGCT	1.04
CGTCTTAGG	0.965
CGTCTTCCCA	1.01

Sequence	switch fluorescence ratio
CGTCTTGCTG	0.973
CGTGAACATC	0.966
CGTGACGTGA	1.01
CGTGAGACGG	1.01
CGTGAGTCTA	1.42
CGTGAGTTAA	1.01
CGTGATCGTG	0.949
CGTGATGGGT	1
CGTGCATACG	1.04
CGTGCCAGAT	0.998
CGTGCCTGTC	0.984
CGTGCGAGGG	0.992
CGTGCGTTTG	1.03
CGTGGACTTA	1.04
CGTGGCAAGT	1.04
CGTGGCTCAG	0.975
CGTGGTATGA	1.02
CGTGGTCGCA	0.995
CGTGGTGACT	0.953
CGTGGTTCTA	0.959
CGTGGTTGGA	1.01
CGTGTACGCT	0.969
CGTGTACTAG	0.959
CGTGTACTCA	1.22
CGTGTCAAGT	0.965

Sequence	switch fluorescence ratio
CGTGTCCACA	0.998
CGTGTCGCGG	0.956
CGTGTCGTGG	1.06
CGTGTCTAAA	1.01
CGTGTGCTGA	0.979
CGTGTGGTGA	0.994
CGTGTGTTCA	0.99
CGTGTTATAT	0.996
CGTGTTCCCG	0.944
CGTTAACGGG	1.04
CGTTAATCTC	1.08
CGTTAGAGGT	0.998
CGTTAGTGGT	0.959
CGTTATAG	0.984
CGTTATAGAT	1.03
CGTTATCGCT	0.971
CGTTATGATA	1.02
CGTTATGG	0.962
CGTTCATGCT	1.01
CGTTCCACCT	1.08
CGTTCGGTGC	1.06
CGTTCGTAAC	1.4
CGTTCGTACT	0.976
CGTTCTGGAT	1.01
CGTTGAACGT	0.929

Sequence	switch fluorescence ratio
CGTTGCGATG	0.97
CGTTGCTTG	1
CGTTGGTC	0.97
CGTTGGTTCT	0.987
CGTTGTA	0.996
CGTTGTAAA	0.997
CGTTGTACAA	0.98
CGTTTCAGAC	1.27
CGTTTCCAAG	0.977
CGTTTCGCG	0.963
CGTTTCGGAA	1.03
CGTTTCTTA	0.98
CGTTTCTTGA	1.01
CGTTTGCCGC	1.19
CGTTTGCGGG	1.04
CGTTTGCTAG	0.98
CGTTTGGCTG	1
CGTTTTATAC	1.44
CGTTTTATGA	0.99
CGTTTTGAAA	1.22
CTAAAAAACC	1.16
CTAAAACCTT	1.16
CTAAAATAGT	0.975
CTAAAATGTT	1.04
CTAAACCAGT	1
